# PubChem BioAssay (Tox21)
# The shares of active, inactive and inconclusive entries below differ from those in the screen. A call without a number means that no potency is given here. For some of these results: Potencies of inconclusive entries are doubtful fits and often do not repeat. The source made the active and inactive calls. Unless noted, calls come from the whole dose curve; as a rule, active = well fitted curve in the direction sought with a large enough effect in the repeat runs; inconclusive = weak or mixed curves; inactive = no such curve, though single readings can be large; an effect the other way counts as inactive or inconclusive.
# Columns and labels:
# [1] = qHTS assay to identify small molecule agonists of the hypoxia (HIF-1) signaling pathway - cell viability counter screen (AID 1224844; calls by dose curve; note: nearly all actives have a fitted effect of over 50% in size; note: potency is the fitted concentration of half-maximal effect)
# Procedure, shortened: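 HRE-bla ME-180; 0.5% dFBS; cpd 17 h, 37C, 5% CO2; CellTiter-Glo lum., 30 min RT, post-FRET read, same wells.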
# [2] = qHTS assay to identify small molecule antagonists of the TGF-beta/Smad signaling pathway (AID 1346924; active = well fitted inhibition curve with a large enough effect in the signal ratio in the repeat runs, not every such curve was filed as active; inconclusive = weak or mixed curves; the % refers to the signal ratio); conditions: SBE-bla HEK293T, TGF-beta/Smad reporter, beta-lactamase ratio; activity, negative = inhibition: at 76.8 µM (top of the series) unless noted
# Procedure, shortened: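 Read-out was FRET-substrate fluorescence (405 nm excitation; 460 and 530 nm emission) after 2 h at room temperature. Before that, cells carrying a Smad-binding-element beta-lactamase reporter in HEK 293T had been stimulated 5 h at 37 C with TGF-beta1 (0.25 ng/mL addition solution) in the presence of test compound.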
# [3] = target: Aryl hydrocarbon receptor (Homo sapiens) (UniProt P35869); assay: qHTS assay to identify small molecule that activate the aryl hydrocarbon receptor (AhR) signaling pathway (AID 743085); note: nearly all actives have a fitted effect of over 15% in size; note: potency is the fitted concentration of half-maximal effect;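 for activation: HG2L7.5c1 human HepG2 liver cells with stably integrated DRE-driven firefly reporter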
# Sequence of UniProt P35869 (P35869 whole entry, looked up): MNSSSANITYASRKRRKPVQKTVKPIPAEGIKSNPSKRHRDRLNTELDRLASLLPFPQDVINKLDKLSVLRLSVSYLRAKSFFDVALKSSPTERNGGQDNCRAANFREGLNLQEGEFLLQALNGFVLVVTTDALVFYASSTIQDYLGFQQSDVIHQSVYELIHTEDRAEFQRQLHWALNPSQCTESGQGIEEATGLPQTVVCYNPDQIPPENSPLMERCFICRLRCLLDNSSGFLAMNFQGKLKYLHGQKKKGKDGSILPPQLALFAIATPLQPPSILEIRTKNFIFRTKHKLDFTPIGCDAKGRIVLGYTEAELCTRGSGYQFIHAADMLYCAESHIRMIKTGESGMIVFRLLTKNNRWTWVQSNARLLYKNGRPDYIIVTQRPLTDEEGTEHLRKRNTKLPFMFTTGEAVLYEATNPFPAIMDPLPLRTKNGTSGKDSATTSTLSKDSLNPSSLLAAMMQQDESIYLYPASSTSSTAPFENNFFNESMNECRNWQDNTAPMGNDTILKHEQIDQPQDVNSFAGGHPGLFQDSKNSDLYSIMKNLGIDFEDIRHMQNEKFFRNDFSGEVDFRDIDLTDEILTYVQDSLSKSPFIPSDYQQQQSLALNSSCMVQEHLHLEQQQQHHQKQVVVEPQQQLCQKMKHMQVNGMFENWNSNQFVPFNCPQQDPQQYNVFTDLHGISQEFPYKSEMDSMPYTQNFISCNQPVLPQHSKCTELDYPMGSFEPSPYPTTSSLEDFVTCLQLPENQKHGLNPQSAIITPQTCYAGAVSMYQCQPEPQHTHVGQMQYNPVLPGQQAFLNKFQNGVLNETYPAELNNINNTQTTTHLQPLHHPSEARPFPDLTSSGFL
# Procedure, shortened: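 AhR agonist activity is inferred from enhanced light output of a DRE-controlled firefly luciferase reporter in HepG2 cells, measured with ONE-Glo following 24 h treatment at 37C.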
# [4] = qHTS assay to identify small molecule agonists of the hypoxia (HIF-1) signaling pathway (AID 1224846; active = well fitted activation curve with a large enough effect in the signal ratio in the repeat runs, not every such curve was filed as active; inconclusive = weak or mixed curves; the % refers to the signal ratio); conditions: HRE-bla ME-180 cells, beta-lactamase ratio, 17 h; activation: at 76.8 µM (top of the series) unless noted
# Procedure, shortened: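 Reporter induction in HRE-bla ME-180 cells is taken as agonism: cells sit 5 hrs after plating, receive compounds or DMSO only, incubate 17 hrs at 37C under 5% CO2, and are loaded with CCF4-AM for beta-lactamase FRET measurement.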
# [5] = qHTS assay to identify small molecule antagonists of the glucocorticoid receptor (GR) signaling pathway - cell viability counter screen (AID 720693); conditions: GR-bla HeLa viability, CellTiter-Glo luminescence, 18 h, with 5 nM dexamethasone present; viability change, negative = cytotoxic: at 58.5 µM (top of the series); note: potency is the fitted concentration of half-maximal effect; nearly all actives have a fitted effect of over 55% in size
# [6] = qHTS assay to identify small molecule agonists of the peroxisome proliferator-activated receptor delta (PPARd) signaling pathway - cell viability counter screen (AID 743211); conditions: PPARd-bla HEK293H viability, CellTiter-Glo luminescence, 17 h; activity change, negative = cytotoxicity: at 62.6 µM (top of the series) unless noted; note: nearly all actives have a fitted effect of over 55% in size; note: potency is the fitted concentration of half-maximal effect
# Procedure, shortened: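 qHTS cell viability: PPARd-bla HEK293H; 17 h cpd, 37C; CellTiter-Glo, luminescence at 30 min RT.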
# [7] = qHTS assay for small molecule activators of the heat shock response signaling pathway (AID 743210; active = well fitted activation curve with a large enough effect in the signal ratio in the repeat runs, with a control signal flat, not every such curve was filed as active; inconclusive = weak or mixed curves; the % refers to the signal ratio;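 note: HeLa cells with beta-lactamase reporter driven by heat shock elements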); conditions: HeLa HSE-bla reporter, beta-lactamase ratio, 5 h; activation: at 62.6 µM (top of the series) unless noted
# Procedure, shortened: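 Beta-lactamase reporter read-out: FRET substrate fluorescence after 2.5 h at RT, following 5 h compound treatment at 37 C of HeLa cells carrying HSE-driven bla reporter; quantitative HTS format.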
# [8] = qHTS assay to identify aromatase inhibitors - cell viability counter screen (AID 743084); conditions: MCF-7 aro ERE viability, CellTiter-Fluor, 24 h; activity change, negative = cytotoxicity: at 70.3 µM (top of the series) unless noted;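 note: cells stimulated with testosterone during compound exposure; nearly all actives have a fitted effect of over 55% in size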; note: potency is the fitted concentration of half-maximal effect
# [9] = target: Androgen receptor (Homo sapiens) (UniProt P10275); assay: qHTS assay to identify small molecule agonists of the androgen receptor (AR) signaling pathway (AID 743036; active = well fitted activation curve with a large enough effect in the signal ratio in the repeat runs, with a control signal flat, not every such curve was filed as active; inconclusive = weak or mixed curves, or effect the other way; inactive = no such curve, though single readings can be large or run the other way; the % refers to the signal ratio; note: potency is the fitted concentration of half-maximal effect); conditions: HEK293 AR-UAS-bla GripTite, beta-lactamase FRET ratio, 16 h; activation: at 62.4 µM (top of the series) unless noted
# Sequence of UniProt P10275 (P10275 whole entry, looked up): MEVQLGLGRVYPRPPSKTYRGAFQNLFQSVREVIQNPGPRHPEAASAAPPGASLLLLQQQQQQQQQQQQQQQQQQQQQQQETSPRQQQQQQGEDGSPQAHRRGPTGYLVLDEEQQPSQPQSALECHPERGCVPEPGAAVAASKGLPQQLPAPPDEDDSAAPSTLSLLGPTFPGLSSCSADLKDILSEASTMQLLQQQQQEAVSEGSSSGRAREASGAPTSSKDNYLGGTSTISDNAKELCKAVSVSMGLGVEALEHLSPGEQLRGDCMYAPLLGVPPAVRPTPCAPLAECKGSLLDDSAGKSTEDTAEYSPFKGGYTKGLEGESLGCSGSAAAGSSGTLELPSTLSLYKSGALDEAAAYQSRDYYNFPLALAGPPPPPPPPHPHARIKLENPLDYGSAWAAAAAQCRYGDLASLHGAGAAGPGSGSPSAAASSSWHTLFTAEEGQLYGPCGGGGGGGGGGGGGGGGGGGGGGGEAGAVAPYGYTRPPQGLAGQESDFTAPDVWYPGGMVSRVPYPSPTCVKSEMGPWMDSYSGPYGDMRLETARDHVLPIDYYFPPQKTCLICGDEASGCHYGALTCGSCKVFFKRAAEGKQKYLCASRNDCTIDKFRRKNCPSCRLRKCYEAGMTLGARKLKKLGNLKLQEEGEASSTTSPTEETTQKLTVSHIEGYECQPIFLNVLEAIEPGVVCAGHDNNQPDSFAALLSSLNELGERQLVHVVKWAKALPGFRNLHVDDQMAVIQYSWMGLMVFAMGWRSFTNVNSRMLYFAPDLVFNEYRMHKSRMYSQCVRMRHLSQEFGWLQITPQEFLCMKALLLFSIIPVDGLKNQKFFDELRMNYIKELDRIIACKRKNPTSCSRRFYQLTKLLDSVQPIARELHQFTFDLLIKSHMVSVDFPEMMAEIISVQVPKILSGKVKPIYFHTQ
# Procedure, shortened: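 Cell-based FRET reporter assay: HEK293 line with a UAS-beta-lactamase construct, compounds added in DMSO, 16 h exposure at 37C, then 2 h substrate step at room temperature and fluorescence intensity read.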
# [10] = qHTS assay to identify small molecule antagonists of the androgen receptor (AR) signaling pathway - cell viability counter screen (AID 743033; note: nearly all actives have a fitted effect of over 45% in size; note: potency is the fitted concentration of half-maximal effect); conditions: AR-bla HEK293 viability, CellTiter-Glo luminescence, 16 h; activity change, negative = cytotoxicity: at 58.5 µM (top of the series) unless noted
# [11] = qHTS assay to identify small molecule HDAC inhibitors - cell viability counter screen (AID 1259365); note: nearly all actives have a fitted effect of over 50% in size
# Procedure, shortened: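 After overnight seeding at 1,500 cells per well, wild-type HCT-116 cultures took up compounds in DMSO for 2hr at 37 C. Viable cell content came from luminescence with CellTiter-Glo.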
# [12] = A CellTox Green Cytotoxicity Assay to monitor cytotoxicity in HepG2 cells - 8 hour (AID 1224890); note: potency is the fitted concentration of half-maximal effect; nearly all actives have a fitted effect of over 45% in size
# Procedure, shortened: (§1)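 Measurements at 0, 8, 16, 24, 32 and 40 h of treatment captured CellTox Green fluorescence in HepG2 cells that had been co-plated with reagent and preincubated 5 h at 37 C/5% CO2.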
# [13] = target: Aromatase (Homo sapiens) (UniProt P11511); assay: qHTS assay to identify aromatase inhibitors (AID 743083); note: nearly all actives have a fitted effect of over 55% in size
# Sequence of UniProt P11511 (P11511 whole entry, looked up): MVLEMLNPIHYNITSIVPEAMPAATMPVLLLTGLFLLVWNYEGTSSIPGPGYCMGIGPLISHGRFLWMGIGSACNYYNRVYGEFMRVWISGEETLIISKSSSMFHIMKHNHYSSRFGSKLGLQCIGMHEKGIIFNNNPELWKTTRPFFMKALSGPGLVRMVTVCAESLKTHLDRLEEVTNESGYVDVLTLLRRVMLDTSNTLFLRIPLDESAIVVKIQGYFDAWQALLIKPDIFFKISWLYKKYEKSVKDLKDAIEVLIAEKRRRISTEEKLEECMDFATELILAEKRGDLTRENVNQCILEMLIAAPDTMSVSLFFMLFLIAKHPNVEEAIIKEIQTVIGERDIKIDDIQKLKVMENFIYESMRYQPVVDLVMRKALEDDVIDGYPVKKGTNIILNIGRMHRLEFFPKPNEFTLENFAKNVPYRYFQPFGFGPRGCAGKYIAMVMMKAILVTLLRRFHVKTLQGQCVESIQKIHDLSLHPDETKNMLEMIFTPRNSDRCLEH
# [14] = qHTS assay to identify small molecule antagonists of the estrogen receptor alpha (ER-alpha) signaling pathway using the BG1 cell line - cell viability counter screen (AID 743081); conditions: BG1Luc4E2 viability, CellTiter-Fluor, 22 h; activity change, negative = cytotoxicity: at 70.3 µM (top of the series) unless noted;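 note: compound given together with 17beta-estradiol as the ER stimulus; nearly all actives have a fitted effect of over 45% in size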
# [15] = system: thyroid hormone receptor (rat, GH3 cells); assay: qHTS assay to identify small molecule agonists of the thyroid receptor (TR) signaling pathway (AID 743066; calls by dose curve); conditions: GH3.TRE-Luc cells, TR agonist luciferase, 24 h; activation: at 83.9 µM (top of the series) unless noted
# [16] = qHTS RealTime-Glo MT Cell Viability Assay in HepG2 cells - 32 hour (AID 1224877); note: nearly all actives have a fitted effect of over 55% in size; note: potency is the fitted concentration of half-maximal effect
# Procedure, shortened: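 Tox21 10K library screened in qHTS format on HepG2 cells carrying RealTime-Glo reagents. Compounds were added after a 5 h preincubation, and the luminescent signal from continuous culture was measured repeatedly during 40 h treatment.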
# [17] = Caspase-3/7 induction in HepG2 cells by small molecules, qHTS cell viability counter screen (AID 1346981); note: nearly all actives have a fitted effect of over 30% in size; note: potency is the fitted concentration of half-maximal effect
# Procedure, shortened: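 Treatment of HepG2 cells with DMSO-delivered compounds ran 16 hr at 37 C following a 5-hr pre-incubation of 2,000 cells/well. CellTiter-Fluor fluorescence, read after 1 hr, served as the viability measure in a qHTS format.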
# [18] = A CellTox Green Cytotoxicity Assay to monitor cytotoxicity in HepG2 cells - 32 hour (AID 1224883); note: nearly all actives have a fitted effect of over 50% in size; note: potency is the fitted concentration of half-maximal effect
# Procedure, shortened: as §1
# [19] = qHTS assay for small molecule disruptors of the mitochondrial membrane potential - cell viability (AID 720634; calls by dose curve;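 note: human HepG2 liver cancer cells; nearly all actives have a fitted effect of over 20% in size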)
# Procedure, shortened: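 In this qHTS format, HepG2 cells plated overnight were pinned with compound, incubated 1 hr, and assayed for ATP luminescence with CellTiter-Glo after m-MPI dye addition.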
# [20] = qHTS assay to identify small molecule antagonists of the sonic hedgehog signaling (Shh) pathway - cell viability counter screen (AID 1259367); note: nearly all actives have a fitted effect of over 55% in size
# Procedure, shortened: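 Fluorescence read-out (CellTiter-Fluor, 1 hr at 37C) taken after 23 hr compound treatment of 3T3 Gli1-Luc cells stimulated with conditioned medium. Cells were seeded at 2,000 per well and pre-incubated 4 hr.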
# Tags give direction and shape of the fitted curve or compound fluorescence and quenching.
compound,measurement,setting,value
CC1(c2ccccc2)OC(C(=O)O)=CC1=O (stereo not given),Potency,[1],inactive
same,"activity, negative = inhibition",[2],inconclusive: -1.13% [at 35.3 µM]
CC(C)=CCC/C(C)=C/C=N/O,Potency,[3],"inconclusive: 54.5 µM [activator, partial curve, poor fit]"
same,Potency,[4],inactive
Cc1cccc(Cl)c1,Potency,[3],inactive
CC1CC(=O)CC(C)(C)C1 (stereo not given),Potency,[5],"inconclusive: 61.6 µM [rising, single point]"
Nc1cc(N)cc(C(=O)O)c1,Potency,[6],inactive
CC(O)C1CCCCC1 (stereo not given),Potency,[7],inactive
CCC(=O)OC(C)c1ccccc1 (stereo not given),Potency,[8],inactive
CCCCCOC(=O)COc1cc(N2C(=O)C3=C(CCCC3)C2=O)c(F)cc1Cl,"activity, negative = inhibition",[2],inconclusive: -1.93%
CCO,Potency,[9],"inconclusive: 16.6 µM [falling, partial curve, poor fit]"
CN1CCN(C(=O)C2CCCCC2)CC1,Potency,[4],inactive
CC(C)CCCCCCOC(=O)c1ccc(C(=O)OCCCCCCC(C)C)c(C(=O)OCCCCCCC(C)C)c1,Potency,[10],inactive
same,Potency,[7],inactive
same,Potency,[11],inactive
NC(=O)c1ncn([C@@H]2O[C@H](CO)[C@@H](O)[C@H]2O)c1O,Potency,[1],inactive
same,Potency,[12],"inconclusive: 26.8 µM [activator, single point]"
C=Cc1ccc(C(C)(C)C)cc1,Potency,[4],inactive
same,Potency,[11],inactive
CCN(C=O)CC,Potency,[1],"inconclusive: 40 µM [cytotoxic, partial curve]"
CC(C)(C)C(=O)/C=C/c1ccc(Cl)cc1,Potency,[13],inactive
same,Potency,[8],"inconclusive: 24.3 µM [cytotoxic, partial curve, poor fit]"
same,Potency,[11],inactive
O=c1[nH]c(=O)c2ccccc2o1,Potency,[9],"inconclusive: 10.7 µM [rising, full curve, poor fit]"
CCOC(=N)CC(=O)OCC,Potency,[5],"inconclusive: 0.11 µM [rising, full curve, poor fit]"
same,Potency,[14],inactive
same,Potency,[1],active: 19.5 µM
CO[Si](CCC1CCC2OC2C1)(OC)OC (stereo not given),Potency,[1],inactive
CCCCCC(=O)CC,Potency,[10],inactive
same,Potency,[4],inactive
CCCCCCCCCCCC(=O)OCC,Potency,[15],inactive
same,Potency,[16],inactive
CC(C)c1cc(C(C)C)cc(C(C)C)c1,Potency,[13],inactive
same,Potency,[7],inactive
CCc1nccnc1CC,activation,[4],inactive: 0.257% [at 15.8 µM]
O=S(=O)(O)c1cc(O)c(O)c(S(=O)(=O)O)c1,"activity, negative = inhibition",[2],inconclusive: 1.43%
O=C(O)CCCl,Potency,[11],inactive
O=C(O)CCc1ccccc1,Potency,[5],"inconclusive: 49 µM [rising, partial curve, poor fit]"
same,Potency,[17],"inconclusive: 68.6 µM [rising, partial curve, poor fit]"
O=C1CCC(=O)N1,Potency,[18],inactive
O=C1CCC(N2C(=O)c3ccccc3C2=O)C(=O)N1 (stereo not given),Potency,[14],inactive
same,Potency,[1],inactive
Brc1ccc(-c2ccccc2)cc1,Potency,[8],"inconclusive: 54.3 µM [cytotoxic, partial curve, poor fit]"
CCCCC(CC)COCCC#N (stereo not given),Potency,[4],inactive
NS(=O)(=O)c1ccc(Cl)c(S(N)(=O)=O)c1,Potency,[6],inactive
same,Potency,[4],inactive
same,Potency,[17],inactive
COc1ccc(OC)c(OC)c1,"activity change, negative = cytotoxicity",[6],inconclusive: 0.076%
C=CC1CC2C=CC1C2 (stereo not given),Potency,[13],inactive
CCCn1cc[n+](C)c1C,Potency,[6],inactive
same,Potency,[16],"inconclusive: 56.6 µM [cytotoxic, single point]"
same,Potency,[17],inactive
CCc1ncc(C)[nH]1,Potency,[10],"inconclusive: 54.9 nM [cytotoxic, full curve, poor fit]"
same,Potency,[8],inactive
O=[N+]([O-])c1cc(C(F)(F)F)ccc1Cl,Potency,[3],inconclusive: 70 µM [activator]
C#CC(O)CCCCC (stereo not given),Potency,[3],inactive
COc1cccc(Br)c1,Potency,[18],"inconclusive: 54.9 µM [activator, single point]"
same,Potency,[12],"inconclusive: 54.9 µM [activator, single point]"
On1nnc2ccccc21,Potency,[19],inactive
same,Potency,[3],"inconclusive: 77 µM [activator, partial curve, poor fit]"
same,Potency,[18],inactive
COC(=O)CCCCCCCCC(=O)OC,Potency,[20],inactive
CCN1CCN(C(=O)N[C@@H](C(=O)N[C@@H]2C(=O)N3C(C(=O)O)=C(CSc4nnnn4C)CS[C@H]23)c2ccc(O)cc2)C(=O)C1=O,Potency,[3],inconclusive: 33.5 µM [activator]
CCOc1ccc2nc(S(N)(=O)=O)sc2c1,Potency,[17],inactive
CC1(C)[C@H]2CC[C@](C)(C2)[C@H]1O,"activity change, negative = cytotoxicity",[10],inconclusive: -30.4% [cytotoxic] [at 78.9 µM]
CC(C)C(C)C,Potency,[6],"inconclusive: 21.2 µM [rising, partial curve, poor fit]"
CC(C)CCCCCCN,Potency,[13],inactive
same,Potency,[8],"inconclusive: 61.1 µM [rising, partial curve, poor fit]"
CCCC[C@H]1CN(CC2CCOCC2)C(=O)OC12CCN(C1(C)CCN(C(=O)c3c(C)ncnc3C)CC1)CC2,Potency,[18],"inconclusive: 48.4 µM [activator, single point]"
same,Potency,[17],"inconclusive: 19.1 µM [cytotoxic, partial curve]"
